Measurements as given in paper PMC4336329 (PLoS ONE, 2015).
In all, about 310,000 compounds went through this assay and about 14,000 (4.5%) showed an effect of 50% or more. The effect is printed as a negative number. Some of the results follow.

Target: human ether-à-go-go-related gene (hERG) potassium channel (human, UniProt Q12809)
Test: primary screen, population patch clamp on CHO cells stably expressing hERG
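Also: peak tail current of the secondary pulse compared with the same well before compound.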

Sequence of human ether-à-go-go-related gene (hERG) potassium channel (Q12809 whole entry, looked up): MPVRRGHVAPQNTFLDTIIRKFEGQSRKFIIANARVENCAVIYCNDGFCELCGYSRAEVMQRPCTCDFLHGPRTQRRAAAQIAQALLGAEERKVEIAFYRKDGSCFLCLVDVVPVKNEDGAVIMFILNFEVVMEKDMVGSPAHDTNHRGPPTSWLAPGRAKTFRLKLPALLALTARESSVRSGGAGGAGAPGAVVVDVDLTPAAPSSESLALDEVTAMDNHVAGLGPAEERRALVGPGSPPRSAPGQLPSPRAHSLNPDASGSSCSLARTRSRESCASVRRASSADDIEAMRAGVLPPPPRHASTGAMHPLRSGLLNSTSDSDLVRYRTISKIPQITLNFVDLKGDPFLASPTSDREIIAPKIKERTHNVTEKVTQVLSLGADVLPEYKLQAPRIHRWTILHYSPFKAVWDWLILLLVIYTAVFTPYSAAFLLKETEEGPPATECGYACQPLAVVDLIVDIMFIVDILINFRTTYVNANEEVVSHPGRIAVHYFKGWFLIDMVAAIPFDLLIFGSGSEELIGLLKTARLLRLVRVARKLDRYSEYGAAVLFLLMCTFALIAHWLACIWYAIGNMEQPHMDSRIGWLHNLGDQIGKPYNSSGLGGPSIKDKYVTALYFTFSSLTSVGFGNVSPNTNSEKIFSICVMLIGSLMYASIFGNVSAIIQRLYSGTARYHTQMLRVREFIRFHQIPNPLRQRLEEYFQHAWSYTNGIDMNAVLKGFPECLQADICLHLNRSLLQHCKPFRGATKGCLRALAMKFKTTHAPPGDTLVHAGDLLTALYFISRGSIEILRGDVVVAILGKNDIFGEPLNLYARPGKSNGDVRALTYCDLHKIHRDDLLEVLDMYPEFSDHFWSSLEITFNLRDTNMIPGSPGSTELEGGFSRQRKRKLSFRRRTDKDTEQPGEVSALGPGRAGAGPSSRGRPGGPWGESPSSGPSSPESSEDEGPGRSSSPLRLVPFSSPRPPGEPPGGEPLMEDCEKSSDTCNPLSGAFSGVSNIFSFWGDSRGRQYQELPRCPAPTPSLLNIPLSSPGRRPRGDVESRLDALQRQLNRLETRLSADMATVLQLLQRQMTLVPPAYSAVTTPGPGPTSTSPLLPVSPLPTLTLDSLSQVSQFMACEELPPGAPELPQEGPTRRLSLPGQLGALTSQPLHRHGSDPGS

Going from `O=C1c2ccccc2CN1CCNS(=O)(=O)c1ccc(Cl)cc1` to `CCCCn1nc(C(=O)Nc2ccc(S(=O)(=O)Nc3ncccn3)cc2)c2ccccc2c1=O`, the “hERG current change (%, negative = inhibition) at 10uM” value rises from -7.29% to -0.506%.

First: O=C(O)c1cccc2[nH]c(C(F)(F)F)nc12
Second: O=C(O)CS(=O)CC(=O)NCc1cccc(C(F)(F)F)c1 (stereo not shown)
The “hERG current change (%, negative = inhibition) at 10uM” value of the first is lower: 10% for the first, 16% for the second.

First: FC(F)(F)c1cnc(Sc2nnc(-c3cccs3)n2CC2CCCO2)c(Cl)c1 (stereo not shown)
Second: Cc1ccc2[nH]c(=O)c(CN(CC3CCCO3)C(=O)c3cccs3)cc2c1 (stereo not shown)
The “hERG current change (%, negative = inhibition) at 10uM” value of the first is lower: -26% for the first, 9.62% for the second.

First: CC1(C)OC2OC(COC(=O)c3ccccc3)C3OC(C)(C)OC3C2O1 (stereo not shown)
Second: CSCCC(NC(=O)c1ccccc1)C(=O)N1CC(C)OC(C)C1 (stereo not shown)
The “hERG current change (%, negative = inhibition) at 10uM” value of the first is lower: -8.67% for the first, 15.5% for the second.

Compared with `CC(NC(=O)c1ccco1)C(=O)N1CCCCC1` (stereo not shown), `CCOc1ccccc1N(CC(=O)NC1CCCCC1)C(=O)CNC(=O)c1ccco1` is higher in “hERG current change (%, negative = inhibition) at 10uM” value: -1.46% for the first, 8.1% for the second.

Going from `N#C/C(=C(/O)c1ccc(S(=O)(=O)N(CCCl)CCCl)cc1)c1nc2ccccc2[nH]1` to `Cc1[nH]c2ccccc2c1/C=C(\C#N)S(=O)(=O)c1ccccc1`, the “hERG current change (%, negative = inhibition) at 10uM” value falls from 8.37% to 5.82%.

First: CCOc1ccc(/C=N/NC(=O)C(C)N(c2ccc(OC)cc2)S(C)(=O)=O)cc1OCC (stereo not shown)
Second: CCCOc1ccc(/C=N\NC(=O)CCc2n[nH]c(=O)[nH]c2=O)cc1OC
The “hERG current change (%, negative = inhibition) at 10uM” value of the first is lower: -1.21% for the first, 2.51% for the second.

Compared with `O=C(Nc1ccc(Cl)cc1)N1CCC(c2nc(-c3ccccc3Cl)no2)CC1`, `Cn1nc(-c2ccc(C(=O)NCC3CCCO3)cc2)c2ccccc2c1=O` (stereo not shown) is lower in “hERG current change (%, negative = inhibition) at 10uM” value: -1.23% for the first, -2.17% for the second.

Compared with `CCN(Cc1ccccc1)C(=O)C1CCN(Cc2ccc(OC)c(OC)c2OC)CC1.O=C(O)C(=O)O`, `COc1ccc(C(=O)NCC(=O)N=Nc2c(O)n(Cc3ccccc3)c3ccccc23)cc1OC` is higher in “hERG current change (%, negative = inhibition) at 10uM” value: -43.4% for the first, -23.7% for the second.

First: O=C(CCCN1C(=O)c2ccccc2C1=O)NCc1ccco1
Second: CCCCN1C(=O)/C(=C\c2ccco2)C(=O)N(CCc2ccccc2)C1=O
The “hERG current change (%, negative = inhibition) at 10uM” value of the first is lower: 6.15% for the first, 8.1% for the second.

First: CC1CCCCC1NC(=O)/C(C#N)=C/c1ccc(F)c(F)c1 (stereo not shown)
Second: O=C(O)C1CC1C(=O)Nc1cc(F)ccc1F (stereo not shown)
The “hERG current change (%, negative = inhibition) at 10uM” value of the first is lower: -9.66% for the first, 7.9% for the second.

Compared with `COCCNC(=O)c1cc2nc(-c3ccccc3)cc(C)n2n1`, `Cc1nc(C)c2c(=O)cc(-c3ccccc3)[nH]c2n1` is lower in “hERG current change (%, negative = inhibition) at 10uM” value: 7.82% for the first, -27.3% for the second.

Compared with `O=C(CSc1nc2ccccc2s1)c1cc2ccccc2o1`, `CSc1nc(Cc2ccccc2)nc2ccccc12` is higher in “hERG current change (%, negative = inhibition) at 10uM” value: -6.39% for the first, 22.9% for the second.

Going from `COc1ccc(/C=C2\SC(=O)N(CCNC(=O)CN3C(=O)NC4(CCCC4)C3=O)C2=O)cc1` to `CCc1nn(CCCC(=O)NCc2ccc(OC(C)C)cc2)c(=O)c2cc3occc3n12`, the “hERG current change (%, negative = inhibition) at 10uM” value falls from -7.84% to -54.4%.

Going from `CC1CN(C(=S)Nc2ccc(Br)cc2Cl)CC(C)O1` (stereo not shown) to `Cc1ccc(Cl)cc1NC(=O)C1C2CCC(O2)C1C(=O)O` (stereo not shown), the “hERG current change (%, negative = inhibition) at 10uM” value rises from -14% to 23.5%.

First: c1ccc2c(N3CCCCC3)nc(N3CCCC3)nc2c1
Second: COc1ccccc1N1CCN(C(=O)c2n[nH]c3ccccc23)CC1
The “hERG current change (%, negative = inhibition) at 10uM” value of the first is lower: -69.6% for the first, 21.9% for the second.

Compared with `Cc1ccc2nc(SCC(=O)N(CC(C)C)c3c(N)n(CC(C)C)c(=O)[nH]c3=O)[nH]c2c1`, `Cc1ccc(Cn2c(=O)c3c(nc4n3CCCN4Cc3ccccc3)n(C)c2=O)cc1` is higher in “hERG current change (%, negative = inhibition) at 10uM” value: 4.17% for the first, 9.88% for the second.

First: CC(Sc1nc2ccccc2[nH]1)C(=O)Nc1ccccc1F (stereo not shown)
Second: O=C(NCc1cc2ccccc2[nH]1)c1ccccc1F
The “hERG current change (%, negative = inhibition) at 10uM” value of the first is lower: 10% for the first, 17.3% for the second.

First: COc1ccc(C(=O)Nc2ccc(C(=O)Nc3cccc(C)c3)cc2)cc1
Second: Cc1cc(NC(=O)c2ccc(Cl)cc2)n(CCOC(=O)c2ccc(Cl)cc2)n1
The “hERG current change (%, negative = inhibition) at 10uM” value of the first is higher: 21.9% for the first, -3.84% for the second.

Compared with `Cc1noc(COc2ccccc2OCC(N)=O)c1Cl`, `COCc1c(C(=O)OCC(=O)N2CCCC2=O)oc2ccccc12` is higher in “hERG current change (%, negative = inhibition) at 10uM” value: 2.16% for the first, 11.6% for the second.

Compared with `CC(NC(=O)c1cc(-c2cccnc2)nc2ccc(Br)cc12)C1CCCO1` (stereo not shown), `O=C(COc1ccc2ccccc2c1)NNC(=O)c1cnccn1` is higher in “hERG current change (%, negative = inhibition) at 10uM” value: -12.2% for the first, -7.99% for the second.

Compared with `CN(CCC#N)C(=O)COC(=O)c1ccc2c(c1)C(=O)N(C1CCCCC1)C2=O`, `COc1ccc(CCN2C(=O)CCC2(C)C(=O)NC2CCCC2)cc1OC` (stereo not shown) is lower in “hERG current change (%, negative = inhibition) at 10uM” value: 12.3% for the first, 7.89% for the second.

Going from `CC1CC(C)CN(CCCNC(=O)C2CCCN(c3ncnc4c3nc3n4CCCCC3)C2)C1` (stereo not shown) to `Clc1ccc(-n2ncc3c(NCCN4CCOCC4)ncnc32)cc1`, the “hERG current change (%, negative = inhibition) at 10uM” value falls from -14.1% to -34.7%.

Going from `Cc1c(NC(=S)N/N=C/c2cccc(O)c2)c(=O)n(-c2ccccc2)n1C` to `COc1cccc(C(=O)N/N=C/c2ccc(OC)c(COc3ccccc3C(N)=O)c2)c1`, the “hERG current change (%, negative = inhibition) at 10uM” value falls from 0.161% to -2.25%.

Going from `Cc1cc(C)c2oc(=O)cc(CN3CCN(Cc4ccccc4)CC3)c2c1` to `COc1cccc(CN2CCN(S(=O)(=O)c3ccc(Br)cc3)CC2)c1`, the “hERG current change (%, negative = inhibition) at 10uM” value rises from -33.2% to -29.4%.

First: [Br-].c1ccc(-c2cn(-c3ccccc3)c3[n+]2CCS3)cc1
Second: c1ccc2cc(-c3cc4ccccn4c3)ccc2c1
The “hERG current change (%, negative = inhibition) at 10uM” value of the first is lower: -5.74% for the first, 2.65% for the second.

First: O=C(O)c1cccc(Cn2c(Cl)c(/C=N/NC(=O)c3cc4ccccc4cc3O)sc2=O)c1
Second: Cc1nc2ccccn2c1C(=O)N/N=C/c1ccc([N+](=O)[O-])cc1
The “hERG current change (%, negative = inhibition) at 10uM” value of the first is lower: 1.45% for the first, 2.88% for the second.

Compared with `C#CCn1c(=NC(=O)CSC(C)=O)sc2cc(F)ccc21`, `CC(=O)OC1c2ccccc2C(=O)N1Cc1ccccc1` (stereo not shown) is higher in “hERG current change (%, negative = inhibition) at 10uM” value: -8.88% for the first, 8.99% for the second.

Compared with `N#Cc1c(=O)c2nc(NCCCO)ncc2n2c(=O)c3ccccc3[nH]c12`, `Cn1c(NCCO)nc2c(c1=O)C1(CCCCC1)Cc1ccccc1-2` is lower in “hERG current change (%, negative = inhibition) at 10uM” value: 19.4% for the first, 5.44% for the second.

Compared with `CC1(C)Cc2cccc(OCC(=O)NC3CC3)c2O1`, `O=S1(=O)CCC(NC(=S)SCCOc2ccccc2)C1` (stereo not shown) is lower in “hERG current change (%, negative = inhibition) at 10uM” value: 11.3% for the first, -13.9% for the second.

Going from `CN1C2CCC1CC(OC(=O)c1c[nH]c3ccccc13)C2.Cl` (stereo not shown) to `CN1CCN(S(=O)(=O)c2ccc(SCCOc3ccccc3)nc2)CC1`, the “hERG current change (%, negative = inhibition) at 10uM” value rises from -40.2% to -30.1%.

Compared with `CC1=CN2C(=N)/C(=C/c3ccc(Sc4ccc(C)cc4)o3)C(=O)N=C2S1`, `CCC1Sc2ccc(S(=O)(=O)CCC(=O)NCc3ccc(C)o3)cc2NC1=O` (stereo not shown) is lower in “hERG current change (%, negative = inhibition) at 10uM” value: 10.1% for the first, 9.8% for the second.

Going from `COc1ccc(-n2c(Cn3nnc4ccccc43)nnc2SCC(=O)O)cc1` to `COc1ccc(CC(=O)OCC(=O)c2ccc[nH]2)cc1`, the “hERG current change (%, negative = inhibition) at 10uM” value falls from 18.5% to -6.48%.

Going from `O=C(CN1C(=O)CSc2ncccc21)Nc1ccccc1F` to `O=C(Cn1cnc2ccccc2c1=O)Nc1ccc2c(c1)OCCO2`, the “hERG current change (%, negative = inhibition) at 10uM” value falls from 11% to -16%.

First: CNC(=O)COC(=O)Cc1ccc(Cl)cc1
Second: O=C(NC1CCCC1)C1CCN(C(=O)c2ccc(Cl)cc2)CC1
The “hERG current change (%, negative = inhibition) at 10uM” value of the first is lower: -5.86% for the first, 20.2% for the second.

First: COc1ccccc1NC(=S)NC(C)C(c1cccs1)N1CCOCC1 (stereo not shown)
Second: CCCOc1ccc(C(=O)C(CN2CCOCC2)c2ccccc2)cc1 (stereo not shown)
The “hERG current change (%, negative = inhibition) at 10uM” value of the first is lower: -24.2% for the first, -8.97% for the second.

Going from `CN(C)Cc1nc2c([nH]1)c(=O)n(C)c(=O)n2C` to `CC1CCN(C(=O)Cn2cnc3c2c(=O)n(C)c(=O)n3C)c2ccccc2S1` (stereo not shown), the “hERG current change (%, negative = inhibition) at 10uM” value falls from -0.353% to -15%.

Going from `N#CC1=C2SCC(O)(c3ccccc3)N2C(=O)CC1c1cccs1` (stereo not shown) to `O=C(NN1C(=O)c2ccccc2NC1c1ccoc1)c1ccccc1` (stereo not shown), the “hERG current change (%, negative = inhibition) at 10uM” value rises from -22.7% to -0.43%.

Going from `COc1c2c(nc3occc13)C(CC=C(C)C)(OC)C(OC(C)=O)CC2` (stereo not shown) to `COc1cc(C(=O)NCCNC(=O)C2CCCNC2=O)cc(OC)c1OC` (stereo not shown), the “hERG current change (%, negative = inhibition) at 10uM” value falls from 10.8% to -1.92%.

Going from `Cc1cc(C)nc(SCC(=O)OC(C)C(=O)Nc2ccccc2)n1` (stereo not shown) to `CC(=O)NS(=O)(=O)c1ccc(NC(=O)c2ccc(Br)o2)cc1`, the “hERG current change (%, negative = inhibition) at 10uM” value rises from 12% to 12.3%.

Compared with `O=C(Nc1ccc(F)c(Cl)c1)Nn1cnnc1`, `O=C(NC(=S)Nc1ccc(N2CCCCC2)cc1)c1ccc2c(c1)OCCO2` is lower in “hERG current change (%, negative = inhibition) at 10uM” value: 12.5% for the first, 1.25% for the second.

First: CNC(=O)c1c(I)c(C(=O)NCC(=O)Nc2c(I)c(C(=O)O)c(I)c(C(=O)NCCO)c2I)c(I)c(N(C)C(C)=O)c1I
Second: O=C(CN(c1ccccc1)S(=O)(=O)c1ccccc1[N+](=O)[O-])Nc1ccccc1C(=O)N1CCOCC1
The “hERG current change (%, negative = inhibition) at 10uM” value of the first is higher: 6.45% for the first, 3.76% for the second.

First: CN1C2C=C3C(C#N)=C(N)C(C#N)(C#N)[C@H](c4c(F)cccc4F)[C@H]3C1CC2 (stereo partly shown)
Second: CCOc1ccc(S(=O)(=O)Nc2cccc(C(=O)NCCCN3CCOCC3)c2)cc1
The “hERG current change (%, negative = inhibition) at 10uM” value of the first is higher: -6.37% for the first, -19.5% for the second.

First: COc1ccc(CCNC(=O)c2cnn3cccnc23)cc1OC
Second: Cl.c1ccc(-c2ccccc2OCCOCCN2CCc3ccccc3C2)cc1
The “hERG current change (%, negative = inhibition) at 10uM” value of the first is higher: 8.36% for the first, -28.7% for the second.
